Among all 310,000 compounds or so, about 2,200 (0.71%) showed an effect of 50% or more. The effect is printed as a negative number. The list shows a part of the results.
Target: human ether-à-go-go-related gene (hERG) potassium channel (human, UniProt Q12809)
Assay: primary screen, population patch clamp on CHO cells stably expressing hERG

Sequence of human ether-à-go-go-related gene (hERG) potassium channel (Q12809 whole entry, looked up): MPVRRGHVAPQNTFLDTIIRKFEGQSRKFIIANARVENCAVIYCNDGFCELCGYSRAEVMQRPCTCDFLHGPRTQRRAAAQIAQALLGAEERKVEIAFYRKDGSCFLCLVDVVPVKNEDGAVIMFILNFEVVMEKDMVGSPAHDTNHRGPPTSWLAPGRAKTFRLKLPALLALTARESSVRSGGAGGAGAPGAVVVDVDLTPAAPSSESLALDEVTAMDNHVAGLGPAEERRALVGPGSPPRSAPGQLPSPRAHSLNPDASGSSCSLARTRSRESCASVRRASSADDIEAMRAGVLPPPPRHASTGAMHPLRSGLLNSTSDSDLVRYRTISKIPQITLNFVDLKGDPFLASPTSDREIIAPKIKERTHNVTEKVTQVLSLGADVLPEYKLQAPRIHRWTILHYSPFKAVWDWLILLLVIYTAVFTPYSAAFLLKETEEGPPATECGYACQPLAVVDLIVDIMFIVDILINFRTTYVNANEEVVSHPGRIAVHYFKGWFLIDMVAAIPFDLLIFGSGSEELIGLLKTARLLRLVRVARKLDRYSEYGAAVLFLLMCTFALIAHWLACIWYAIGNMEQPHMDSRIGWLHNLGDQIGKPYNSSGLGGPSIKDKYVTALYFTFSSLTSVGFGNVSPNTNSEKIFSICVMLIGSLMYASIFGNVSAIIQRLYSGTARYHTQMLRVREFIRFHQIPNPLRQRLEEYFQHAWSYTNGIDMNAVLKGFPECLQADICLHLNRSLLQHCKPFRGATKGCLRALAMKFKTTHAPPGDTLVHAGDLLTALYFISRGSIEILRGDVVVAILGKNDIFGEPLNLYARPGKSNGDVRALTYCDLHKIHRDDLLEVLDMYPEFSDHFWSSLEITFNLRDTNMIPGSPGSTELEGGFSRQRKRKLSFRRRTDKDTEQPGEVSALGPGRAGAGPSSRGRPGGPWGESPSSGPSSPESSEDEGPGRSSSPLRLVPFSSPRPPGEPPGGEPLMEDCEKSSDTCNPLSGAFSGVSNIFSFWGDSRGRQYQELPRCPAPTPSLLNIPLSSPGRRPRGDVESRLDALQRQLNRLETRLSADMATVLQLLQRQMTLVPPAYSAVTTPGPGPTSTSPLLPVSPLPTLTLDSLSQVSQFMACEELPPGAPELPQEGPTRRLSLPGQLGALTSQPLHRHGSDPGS

Point of comparison: `COc1ccc(C)cc1NC(=O)c1ccc2c(SCC(=O)O)c3c(nc2c1)CCCC3`, “hERG current change (%, negative = inhibition) at 1uM” value 13.9%. Against it:
- O=C(O)CSc1c(O)c2ccccc2[nH]c1=O — lower, -1.64%
- COc1ccc(C(=O)O/N=C(\C)c2ccccc2)cc1 — lower, 7.2%
- CC(Cc1ccccc1)NC(=O)C1CCCNC1=O (stereo not shown) — lower, 10.4%
- O=C(Cn1cnc2c(cnn2-c2ccc(F)cc2)c1=O)OCc1ccccc1 — lower, 9.47%
- O=C(Nc1nnc(SCc2c(Cl)cccc2Cl)s1)c1cccc([N+](=O)[O-])c1 — higher, 14.6%
- COc1ccc(C(CNC(=O)C2CC(=O)N(Cc3ccccc3)C2)N2CCOCC2)cc1 (stereo not shown) — lower, -1.54%
- Cc1ccc(CC(=O)Nc2nnc(-c3ccc(F)cc3)o2)c(C)c1 — lower, 7.33%
- Cc1ccc(CCNC(=O)C2CCCN(S(=O)(=O)c3c(C)noc3C)C2)cc1 (stereo not shown) — lower, 8.68%
- O=C(Nc1ccccc1)N1CCCC(CNS(=O)(=O)Cc2ccccc2)C1 (stereo not shown) — lower, -18.6%
- O=C(c1cc(Cl)nc2ccccc12)N1CCN(S(=O)(=O)c2cccc(C(F)(F)F)c2)CC1 — higher, 20.3%
- COC(=O)c1cc2sc(Cl)cc2n1CC(=O)Nc1cccc(SC)c1 — lower, 6.79%
- CCN1CCN(c2ncc(C(=O)Nc3c(F)cc(F)cc3Br)c3ccccc23)CC1 — lower, -17.7%
- Cc1cc(Br)ccc1NC(=O)c1cnc(N2CCN(c3ccccn3)CC2)c2ccccc12 — lower, 12.1%
- Cc1ccc(NC(=O)COC(=O)c2ccnn2C)cc1 — higher, 16.5%
- O=C(NCCc1ccc(Cl)cc1)C1(c2ccccc2)CC1 — lower, 6.62%
- COc1cc2c(cc1NC(=O)c1cccnc1)oc1ccccc12 — lower, 8.74%
- CCN(CC(=O)NCc1cccs1)C(=O)c1cc(S(=O)(=O)N2CCCCC2)ccc1Cl — lower, -3.26%
- CCn1cc(C(=O)N(C)c2ccc(OC)cc2)c2cc(OC)c(OC)cc2c1=O — lower, 11.9%
- COc1ccc(/C=C/C(=O)NC(=S)N2CCN(c3ccccc3OC)CC2)cc1 — lower, 11.5%
- NC(=O)c1nnsc1-c1ccc(-c2snnc2C(N)=O)cc1 — lower, 12.2%
- COc1ccc(C(=O)Nc2nc3ccccc3[nH]2)cc1 — higher, 20.6%
- COc1ccccc1OCCNC(=O)c1cc(=O)[nH]c2ccccc12 — lower, 0.367%
- CCOc1ccc(S(=O)(=O)N2CCOCC2)cc1NC(=O)CSCC(=O)Nc1ccc(C)cc1 — lower, -9.03%
- CC(=O)N/N=C/c1c(C)[nH]n(-c2ccccc2)c1=O — higher, 15.1%
- CC(C)n1c(SCC(=O)Nc2ccc(N3CCOCC3)cc2)nnc1-c1ccco1 — lower, 12.2%
- COc1ccc(-c2nn(CCC(=O)O)cc2CCC(=O)O)cc1 — higher, 16.2%
- CCOC(=O)C1(CCOC)CCN(Cc2cccc(OCc3ccccc3)c2)CC1 — lower, 3.99%
- O=C(N/N=C/C(Br)=C\c1ccccc1)c1ccco1 — lower, 12.6%
- CCOc1ccc(OCC)c(S(=O)(=O)NNC(=O)c2c(C)nc3ccccn23)c1 — lower, 5.91%
- CSc1ccc(CN2CCN(CC=C(C)C)C(CCO)C2)cc1 (stereo not shown) — lower, 3.67%
- COc1ccc(NC(=S)NC(=O)c2cc3ccccc3o2)c(OC)c1 — higher, 17.2%
- COc1ccc(-c2c(C)nn3c(N)c(-c4ccccc4)cnc23)cc1OC — lower, 12.8%
- O=C(OCCN1CCOCC1)c1cccnc1 — lower, -14.6%
- COc1ccc(S(=O)(=O)N(C)C)cc1NCC(=O)Nc1cccc(C#N)c1 — lower, 6.73%
- CCCn1nc(NC(=O)CC(C)C)c2cc3cccc(C)c3nc21 — lower, 13.4%
- CSc1nnc(-c2sccc2OCc2ccc(C)cc2)n1C — lower, 6.59%
- CCN1CCN(c2ccc(S(=O)(=O)N3CCCCC3)cc2NC(=O)c2cccc(F)c2)CC1 — lower, -2.83%
- Fc1cc(Br)ccc1COc1ccc(-c2nnco2)cc1 — lower, 13.5%
- Cc1ccc(C)c(OCCCC(C)(C)C(=O)O)c1 — lower, 13.7%
- Cc1ccc(CSCCNS(=O)(=O)c2ccc(C)cc2)cc1 — lower, 6.26%
- COCC(C)NC(=O)c1ccc(-n2nc(C(F)(F)F)cc2-c2cccs2)cc1 (stereo not shown) — higher, 15.5%
- COc1cc(CNC(=O)c2cc3ccccc3oc2=O)cc(OC)c1OC — higher, 15.2%
- CCOC(=O)C(C)Sc1nc(N2CCOCC2)c2c(c1C#N)CC(C)(C)OC2 (stereo not shown) — lower, -13.4%
- O=C(O)CCC(=O)N1N=C(c2ccc(Br)cc2)CC1c1ccc(Br)cc1 (stereo not shown) — lower, 13.8%
- Cc1nc2nc(CNC(=O)OC(C)(C)C)nn2c(C)c1CCC(=O)Nc1ccc2c(c1)OCO2 — lower, 10.2%
- CCCOC(=O)c1ccccc1C(=O)OCCC — lower, 3.27%
- O=C(c1ccc2ccccc2c1)N1CCOCC1 — lower, 0.316%
- Br.N=c1n(CCc2ccccc2)c2ccccc2n1Cc1ccccc1F — lower, -9.81%
- CCOC(=O)c1c(C)[nH]c(C(=O)N/N=C\c2ccccc2Cl)c1C — lower, 12.5%
- Cc1ccc(S(=O)(=O)Nc2nc(-c3ccc(F)cc3)cs2)cc1 — lower, 11.8%
- Cc1nn(S(=O)(=O)N2CCOCC2)c(C)c1Br — lower, 12.3%
- Clc1ccccc1Cn1nnc2c(NCCN3CCOCC3)ncnc21 — lower, 6.09%
- CCC1(C)Cc2c(sc3nc(SC)[nH]c(=O)c23)CO1 (stereo not shown) — lower, 11.4%
- COc1cccc(CN2CCN(c3ccc(F)cc3)C2=O)c1 — lower, 9.9%
- COc1ccc2[nH]cc(CCNC(=O)Nc3ccccc3C)c2c1 — higher, 14%
- Fc1ccccc1N1CCN(Cc2nc(-c3ccccc3)no2)CC1 — lower, 4.96%
- Cc1ccc2[nH]c(=O)c(CN(Cc3cccs3)S(=O)(=O)c3ccc4c(c3)OCCO4)cc2c1 — lower, 10.5%
- Cc1nn(CC(=O)NCCCc2ccccc2)c(=O)c2cccn12 — lower, -16.5%
- Cc1ccc(-c2csc3nc[nH]c(=S)c23)cc1C — higher, 14.7%
- C[C@H](NC(=O)c1nc[nH]c1C(=O)N[C@@H](Cc1ccccc1)C(=O)OC(C)(C)C)c1ccccc1 — higher, 17.3%
- COc1ccc(CCNC(=O)c2ccc(S(=O)(=O)N(C)c3ccccc3)cc2)cc1OC — lower, 10.4%
- CC1(C)NC(=O)N(c2ccc([N+](=O)[O-])c(C(F)(F)F)c2)C1=O — higher, 14%
- COc1ccc(/C=C2\SC(=S)N(c3cccnc3)C2=O)cc1 — lower, 9.63%
- Cc1cc(NC(=O)CSCC(=O)Nc2ccccc2OC(F)F)no1 — lower, 12%
- O=C(Nc1ccccc1C(=O)N1CCCCCC1)c1ccc(Cl)cc1 — lower, 12.5%
- COc1ccc(CCNC(=O)C/C(C)=N/NC(=O)Cc2cccc3ccccc23)cc1OC — lower, 11.7%
- COc1cc(NC(=O)c2cccs2)c(C(=O)OCC(=O)NC(=O)NCc2ccccc2)cc1OC — lower, 2.7%
- O=C(Oc1ccc2c(=O)c(Cl)coc2c1)c1ccncc1 — lower, 10.6%
- CC(=O)Nc1ccc2c3c(cccc13)C(=O)N(c1ccccc1)C2=O — lower, -0.237%
- CC(=O)C[C@H]1c2cc(C(F)(F)F)ccc2S(=O)(=O)N1Cc1ccccc1 — lower, 6.19%
- CCN(CC)S(=O)(=O)c1ccc(OCC(=O)NC2CCS(=O)(=O)C2)c([N+](=O)[O-])c1 (stereo not shown) — lower, 13.5%
- C/C(=N/Nc1ncc(C(F)(F)F)cc1Cl)c1ccncc1 — lower, -11.8%
- Clc1ccc(CNC2CCN(Cc3ccccc3)CC2)cc1 — lower, -21.4%
- CCn1nnc(-c2ccccc2NS(=O)(=O)c2ccc(C(=O)OC)cc2)n1 — higher, 14.7%
- NNc1nc2c(F)cccc2s1 — lower, -1.95%
- C[C@H](NC(=O)c1ccco1)C(=O)Nc1ccc(C#N)cc1 — lower, 3.86%
- CC1(C)CC(=O)C(C(c2cc([N+](=O)[O-])ccc2Cl)C2C(=O)CC(C)(C)CC2=O)C(=O)C1 — lower, 7.13%
- O=S(=O)(c1ccccc1)N(CC1CO1)c1ccccc1 (stereo not shown) — lower, 4.64%
- C=CCn1c(SCC(=O)Nc2cc3oc4ccccc4c3cc2OC)nnc1-c1cnccn1 — lower, 6.39%
- O=C(CSc1n[nH]c(-c2ccccc2F)n1)Nc1cc(F)ccc1F — lower, 3.35%
- COC(=O)c1cc(OC)c(OC)cc1NC(=O)Nc1ccccc1F — lower, 8.43%
- Cc1cccc(N(C)C(=O)COc2cc(=O)n(C)c3ccccc23)c1 — lower, 3.07%
- Cc1nnsc1-c1nnc(SCC(=O)c2ccc(F)cc2)n1C1CC1 — lower, 10.3%
- COC1CCCN(Cc2cn(C)nc2-c2ccc(Oc3ccccc3)cc2)C1 (stereo not shown) — lower, 2.4%
- COCc1cc(C)nc2sc(C(=O)Nc3cccc(OC)c3)c(N)c12 — lower, 11.2%
- CC(=O)Nc1ccc(NC(=O)CSc2ccc(-c3ccc(-n4ccnc4)cc3)nn2)cc1 — higher, 15.4%
- COc1ccc(CCNC(=O)CN2CCN(c3cccc(C(F)(F)F)c3)CC2)cc1 — lower, -10%

Reference: publication PMC4336329 (PLoS ONE, 2015)
